SMILES strings stand for the structures. Out of some 340,000 compounds screened, about 6,900 (2%) were called active. Cut-off read from the data, not from the text of the source: active = inhibition above about 30%; inactive = below that, where a call was filed. This is a selection; strong and weak results do not stand in their true shares. Where no call is shown, the source filed none.

The test deals with D(2) dopamine receptor (Homo sapiens) (UniProt P14416). Put plainly: HTS Assay for Allosteric Antagonists of the Human D2 Dopamine Receptor: Primary Screen for Antagonists. Note: 0% is about no effect. The conditions noted are these: HEK293 TREx D2 cells, calcium flux, dopamine EC80; at 10 µM; stronger effect = higher value. In a few lines: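 Measurement of antagonist activity uses fluorescent calcium dye in inducible HEK293 T-REx D2 cells: 10 s baseline, compound addition with 180 s read, EC80 dopamine addition with a further 180 s read.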
Chain of UniProt P14416 (P14416 whole entry, looked up): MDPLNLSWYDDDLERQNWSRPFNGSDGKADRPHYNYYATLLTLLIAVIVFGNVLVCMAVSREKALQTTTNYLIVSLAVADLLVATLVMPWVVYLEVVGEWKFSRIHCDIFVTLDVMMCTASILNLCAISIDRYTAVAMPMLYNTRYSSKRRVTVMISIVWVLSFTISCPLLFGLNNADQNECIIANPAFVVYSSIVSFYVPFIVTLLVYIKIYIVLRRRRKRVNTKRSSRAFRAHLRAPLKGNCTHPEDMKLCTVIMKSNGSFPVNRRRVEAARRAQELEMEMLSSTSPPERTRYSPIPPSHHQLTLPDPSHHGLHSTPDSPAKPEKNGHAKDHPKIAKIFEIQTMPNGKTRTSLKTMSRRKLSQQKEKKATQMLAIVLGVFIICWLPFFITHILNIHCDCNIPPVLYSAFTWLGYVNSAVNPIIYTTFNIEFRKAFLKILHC
`Cc1ccc(C)c(N2CCN(c3nc4ccccc4c(=O)n3-c3ccc(Cl)cc3)CC2)c1`: the inhibition worked out at 0.535%.
For `COc1ccc2c(c1)Cc1sc(NC(=O)c3ccccc3C)nc1-2`, the inhibition was -17.6%.
With `COc1ccc(NC(=O)Cn2cnc3ccc(S(=O)(=O)N4CCC(C)CC4)cc3c2=O)c(OC)c1`, the inhibition is -0.379%.
For the compound `COc1cccc(CNC(=O)c2ccc(-c3nc(CS(=O)c4ccccc4)c(C)o3)cc2)c1` (stereo unspecified), the inhibition amounted to 6.19%.
For the compound `COc1ccc(C2=C(C)C(N3CCC(C(=O)NCc4ccc(C)o4)CC3)=NS2(=O)=O)cc1`, the inhibition came out at 0.549%.
For `Cc1ccc(Sc2ccc(N3CCCC(C(=O)Nc4ccc(Br)cc4)C3)nn2)cc1` (stereo unspecified), the inhibition turned out to be 11%.
Turning to `CCCNC(=O)COC(=O)/C=C/c1ccc(C)o1`, the inhibition is active: 30.3%.
The same measure for `Cc1c(C)n(Cc2ccccc2)c2ccc(C(=O)N3CCN(c4ccccc4F)CC3)cc12`: -2.55%.
On to `CCc1c(C(=O)N/N=C/c2cn[nH]c2-c2ccc(F)cc2)csc1C`, for which the inhibition is active: 71.1%.
On to `Cc1nc2ccn(Cc3cccnc3)c(=O)c2cc1C(=O)N1CCN(c2ccccc2F)CC1`, for which the inhibition is -4.79%.
Consider `CCNCc1nc2cc(OC)c(OC)cc2c(=O)[nH]1`, for which the inhibition was active: 32.7%.
The same measure for `COc1ccc(SCc2cc(=O)c3ccc(C)c(C)c3[nH]2)cc1`: 16.2%; for `O=C(NCCc1ccc(Cl)cc1)c1cc(-c2ccccc2)n[nH]1`: -3.96%; for `CCc1ccc(-n2nc(CO)c(C(=O)NC(C)c3ccc(Cl)cc3)n2)cc1` (stereo unspecified): 7.83%.
Consider `O=C(Nc1ccc(C(=O)NCCCN2CCN(c3ccccc3)CC2)cc1)C1=CSCCO1`, for which the inhibition is active: 81.4%.
Turning to `COc1cccc(CNC(=O)CN2C(=O)CCc3cc(S(=O)(=O)N4CCOCC4)ccc32)c1`, the inhibition is -6.24%.
In the case of `COc1ccc(OC)c2sc(N(Cc3cccnc3)C(C)=O)nc12` it was -22.3%.
In the case of `CCOC(=O)N1CCN(Cc2nc3cc(NC(=O)CC)ccc3n2C(C)C)CC1` it was -4.95%.
In the case of `CC(C)c1ccccc1NC(=S)NC1CCN(Cc2ccccc2)CC1` it was active: 95.7%; in that of `CCOC(=O)N1CCN(CC(O)COc2ccccc2C(C)CC)CC1` (stereo unspecified), active: 32.4%; in that of `CCN(CCCNC(=O)CSc1cc(=O)n(CC)c2ccccc12)c1ccccc1`, -2.37%.
In the case of `Cc1ccccc1NC(=O)CSC1=C(C#N)C(c2ccsc2)CC(=O)N1` (stereo unspecified), the inhibition was active: 36.7%.
In the case of `CCN(CC)CCOc1c(C)cccc1Cl`, the inhibition was active: 62%.
In the case of `Cc1ccc(NC(=O)C2CCCCC2)cc1C`, the inhibition is active: 36.2%.
In the case of `CCc1ccc(NC(=O)Nc2cn(C)c(=O)c3ccccc23)cc1`, the inhibition came to 14.9%.
With `COC(=O)C1=C(C)NC(=O)NC1c1cn(-c2ccccc2)nc1-c1ccc(OC)c(Br)c1` (stereo unspecified), the inhibition is 10.8%.
Turning to `O=c1oc2cc(O)ccc2cc1-c1nc(-c2ccc(Cl)c(Cl)c2)cs1`, the inhibition worked out at 4.2%.
The same measure for `CCCn1c(COc2cccc(C)c2)nc2ccccc21`: -22.9%; for `CCc1sc(Nc2cccc(Cl)c2)nc1-c1cc2cccc(OC)c2oc1=O`: -1.47%; for `Cc1ccc(CN2CCN(c3ccccn3)CC2)s1`: active: 93.6%.
Turning to `Cc1c(C(=O)OCc2ccccc2)[nH]c2c1C(=O)CC(c1ccc(N(C)C)cc1)C2` (stereo unspecified), the inhibition is 1.52%.
Consider `COc1ccc(NC(=O)CN2C(=O)C(C)(C)c3cc(S(=O)(=O)N4CCCCC4)ccc32)cc1Cl`, for which the inhibition is 7.54%.
Consider `Cc1ccc(/C=C/c2onc(C)c2S(=O)(=O)N2CCC(C(=O)Nc3ccc(OC(F)(F)F)cc3)CC2)cc1`, for which the inhibition stood at 23.2%.
With `COc1ccc2c(c1)c1c(c(=O)n(-c3ccccc3C)c(=O)n1CC(N)=O)n2C`, the inhibition came to 14.6%.
In the case of `CCCN(CCC)C(=O)Cn1c(=O)n(CCCCCC(=O)Nc2ccccc2)c(=O)c2sccc21` it was 0.864%; in that of `Cc1ccc(CNC(=O)CCc2c(C)nc3c(-c4ccc(F)cc4)c(C)nn3c2C)cc1`, -12.3%; in that of `COC(=O)c1ccc(NC(=O)Cn2ccn3nc(-c4ccc(OC)cc4)cc3c2=O)cc1`, 1.68%.
On to `Cc1cccc(OCC(=O)Nc2cccc(C(=O)OCc3cc(=O)n4nc(C(C)C)sc4n3)c2)c1`, for which the inhibition turned out to be 12.5%.
In the case of `COc1cc(C(=O)N2CCNC(=O)C2CC(=O)Nc2ccc(C)c(C)c2)cc(OC)c1OC` (stereo unspecified) it was -9.65%; in that of `CCCCNc1nc2c(-c3cccc(C)c3)nnn2c2ccccc12`, -2.72%; in that of `CCN1CCc2c(sc(NC(=O)c3ccc(S(=O)(=O)N(C)C4CCCCC4)cc3)c2C(N)=O)C1`, -6.85%.
As for `CC(=O)O[C@]1(C(C)=O)CC[C@H]2[C@@H]3C=C(Cl)C4=CC(=O)[C@@H]5C[C@@H]5[C@]4(C)[C@H]3CC[C@@]21C`, the inhibition was active: 39.6%.
With `O=C(/C=C\c1ccc2c(c1)OCO2)NC1CC(=O)N(c2ccccc2)C1` (stereo unspecified), the inhibition was 5.09%.
With `CSc1ccc(CNC(=O)Cn2c(-c3cccs3)cc3cc(F)ccc32)cc1`, the inhibition was 11.8%.
On to `CC1Cc2cc(S(=O)(=O)CCC(=O)Nc3ccc(F)cc3)ccc2N1C(=O)C1CC1` (stereo unspecified), for which the inhibition is -6.08%.
Consider `COc1cc2ccccc2cc1C(=O)OCC(=O)c1c(N)n(C)c(=O)n(C)c1=O`, for which the inhibition was active: 52.1%.
As for `O=C(Nc1ccsc1C(=O)NC1CCCCC1)c1ccccc1`, the inhibition is active: 30.7%.
As for `COc1cc(OC)cc(C(=O)Nc2ccc3nc4c(c(Nc5ccc(OC)c(OC)c5)c3c2)CCCC4)c1`, the inhibition was -21.9%.
Consider `O=C(Nc1ccc(-c2nc3ccccc3o2)c(O)c1)c1cc(Cl)ccc1Cl`, for which the inhibition stood at 6.11%.
As for `CCCCc1ccc(Nc2cc(C)nc(-n3nc(C)cc3C)n2)cc1`, the inhibition is -6.96%.
Take `Cc1occc1C(=O)N/N=C/c1ccccc1[N+](=O)[O-]`: the inhibition was active: 34.6%.
Turning to `CCN(C(=O)CCS(=O)(=O)c1ccc2c(c1)CCN2C(C)=O)c1cccc(C(F)(F)F)c1`, the inhibition stood at 1.47%.
In the case of `CCCCNC(=O)CC1Nc2cc(C)c(C)cc2NC1=O` (stereo unspecified) it was 13.2%.
With `O=C(Nc1ccc2nc3n(c(=O)c2c1)CCCCC3)c1ccccc1[N+](=O)[O-]`, the inhibition is active: 30.2%.
Turning to `CN(C)S(=O)(=O)c1ccc(C(=O)NCCSc2c(-c3ccc(Br)cc3)[nH]c3ccccc23)cc1`, the inhibition came to 8.97%.
In the case of `COc1ccccc1NC(=O)c1nn(C)c2c1CS(=O)(=O)c1ccccc1-2`, the inhibition was -7.46%.
As to `Cc1c(Cl)cccc1N1CCn2c1nc1c2c(=O)n(CC(=O)O)c(=O)n1C`, the inhibition is -7.86%.
The same measure for `COc1ccc(Cl)cc1NC(=O)Nc1c[nH]c(=O)[nH]c1=O`: 1.3%.
In the case of `O=C(NCCc1ccc(Cl)cc1)c1nnc(Cc2ccc(F)cc2)o1`, the inhibition is 2.58%.
Turning to `O=C(CCSCc1ccc(Cl)cc1)NCCc1ccccc1`, the inhibition was 7.31%.
The same measure for `Cc1ccc(NC(=O)C2CCCN(c3ncnc4onc(C)c34)C2)c(Cl)c1` (stereo unspecified): 9.05%.

Source of the values: PubChem BioAssay AID485344 (National Center for Advancing Translational Sciences (NCATS), 2010).
